Results are given in words; binding and its absence hold for the method and conditions named. For some of these results: Binding seen in cells or lysates may run through a third protein. Some results given as binding are weak or reduced against the parent protein; the word gives no strength. For some of these results: Tags and fused reporters may be left off the sequences shown. Each block holds one substance with its values, some of them ahead of it.
Legend:
[1] = biological target: factor inhibiting HIF (FIH), V5-tagged (FIH-V5) (UniProt Q9NWT6); test: immunoblot of a denaturation-resistant (SDS-PAGE) complex; HEK293 cells transiently co-transfected, normoxia; complex seen at the summed molecular weight; also with FG-4592 (0.1 mM), DM-NOFD (1 mM) or MG132 (10 μM), and with lysates treated with DTT or β-mercaptoethanol, 5 min at 95 °C; shows only complexes that resist denaturation
[2] = biological target: factor inhibiting HIF (FIH), V5-tagged (FIH-V5) (UniProt Q9NWT6); test: immunoblot of a denaturation-resistant (SDS-PAGE) complex; ectopic co-expression of UBA1 with FIH; cells not stated (Figure S2)
[3] = biological target: FIH-IκBβ oxomer (FIH-V5 with IκBβ-FLAG) (UniProt Q9NWT6); test: co-IP; IκBβ-FLAG expressed in HEK293 cells alone or with FIH-V5; immunoprecipitated with anti-V5 or anti-FLAG antibodies, immunoblot
[4] = biological target: T1, NF-κB inhibitor β (IκBβ), FLAG-tagged (IκBβ-FLAG) (human) (UniProt Q15653); test: as above
T1 sequence: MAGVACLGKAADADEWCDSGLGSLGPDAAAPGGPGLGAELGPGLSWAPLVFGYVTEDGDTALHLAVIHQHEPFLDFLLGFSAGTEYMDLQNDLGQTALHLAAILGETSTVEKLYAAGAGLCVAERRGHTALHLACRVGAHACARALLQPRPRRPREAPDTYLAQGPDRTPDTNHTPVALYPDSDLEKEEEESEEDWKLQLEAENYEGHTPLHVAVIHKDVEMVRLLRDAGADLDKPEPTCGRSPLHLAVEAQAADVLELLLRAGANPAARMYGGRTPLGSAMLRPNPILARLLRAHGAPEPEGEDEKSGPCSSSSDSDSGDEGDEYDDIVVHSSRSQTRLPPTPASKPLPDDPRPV

Amino acid sequences for entries named in this document (tags omitted).
UniProt Q9NWT6: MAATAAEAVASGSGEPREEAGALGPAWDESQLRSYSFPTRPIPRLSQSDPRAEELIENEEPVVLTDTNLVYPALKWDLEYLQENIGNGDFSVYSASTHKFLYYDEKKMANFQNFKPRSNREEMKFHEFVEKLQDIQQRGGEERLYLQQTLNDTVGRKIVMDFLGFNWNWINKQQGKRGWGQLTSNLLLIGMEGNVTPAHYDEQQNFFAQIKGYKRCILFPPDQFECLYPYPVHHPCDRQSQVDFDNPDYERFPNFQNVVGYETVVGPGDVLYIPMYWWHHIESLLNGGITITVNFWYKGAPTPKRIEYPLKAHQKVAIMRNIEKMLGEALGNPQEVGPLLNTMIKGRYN
UniProt P19838: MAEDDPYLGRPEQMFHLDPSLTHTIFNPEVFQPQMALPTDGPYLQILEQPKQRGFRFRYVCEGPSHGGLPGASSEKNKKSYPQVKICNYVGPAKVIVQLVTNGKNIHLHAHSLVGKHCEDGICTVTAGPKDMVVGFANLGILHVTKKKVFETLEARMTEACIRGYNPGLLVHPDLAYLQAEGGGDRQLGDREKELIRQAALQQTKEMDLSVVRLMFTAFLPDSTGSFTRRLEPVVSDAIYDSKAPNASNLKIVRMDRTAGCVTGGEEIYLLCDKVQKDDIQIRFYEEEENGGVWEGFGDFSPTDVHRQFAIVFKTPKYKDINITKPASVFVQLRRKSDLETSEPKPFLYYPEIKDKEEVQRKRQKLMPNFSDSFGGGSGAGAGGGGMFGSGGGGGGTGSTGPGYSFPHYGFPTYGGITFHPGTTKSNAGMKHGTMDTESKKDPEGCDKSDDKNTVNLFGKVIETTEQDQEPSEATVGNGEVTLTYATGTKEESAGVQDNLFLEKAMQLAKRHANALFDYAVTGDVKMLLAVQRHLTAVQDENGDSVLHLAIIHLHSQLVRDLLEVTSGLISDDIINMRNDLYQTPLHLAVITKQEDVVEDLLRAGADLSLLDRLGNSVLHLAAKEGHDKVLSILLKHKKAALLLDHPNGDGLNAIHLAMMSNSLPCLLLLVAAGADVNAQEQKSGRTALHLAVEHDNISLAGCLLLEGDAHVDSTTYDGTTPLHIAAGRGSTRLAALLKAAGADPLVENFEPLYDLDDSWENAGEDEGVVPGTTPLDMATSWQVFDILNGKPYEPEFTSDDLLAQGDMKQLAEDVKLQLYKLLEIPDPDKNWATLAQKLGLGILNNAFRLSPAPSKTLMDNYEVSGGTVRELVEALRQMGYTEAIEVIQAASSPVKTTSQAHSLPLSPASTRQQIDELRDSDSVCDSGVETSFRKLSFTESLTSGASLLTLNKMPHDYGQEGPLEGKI
UniProt P22314: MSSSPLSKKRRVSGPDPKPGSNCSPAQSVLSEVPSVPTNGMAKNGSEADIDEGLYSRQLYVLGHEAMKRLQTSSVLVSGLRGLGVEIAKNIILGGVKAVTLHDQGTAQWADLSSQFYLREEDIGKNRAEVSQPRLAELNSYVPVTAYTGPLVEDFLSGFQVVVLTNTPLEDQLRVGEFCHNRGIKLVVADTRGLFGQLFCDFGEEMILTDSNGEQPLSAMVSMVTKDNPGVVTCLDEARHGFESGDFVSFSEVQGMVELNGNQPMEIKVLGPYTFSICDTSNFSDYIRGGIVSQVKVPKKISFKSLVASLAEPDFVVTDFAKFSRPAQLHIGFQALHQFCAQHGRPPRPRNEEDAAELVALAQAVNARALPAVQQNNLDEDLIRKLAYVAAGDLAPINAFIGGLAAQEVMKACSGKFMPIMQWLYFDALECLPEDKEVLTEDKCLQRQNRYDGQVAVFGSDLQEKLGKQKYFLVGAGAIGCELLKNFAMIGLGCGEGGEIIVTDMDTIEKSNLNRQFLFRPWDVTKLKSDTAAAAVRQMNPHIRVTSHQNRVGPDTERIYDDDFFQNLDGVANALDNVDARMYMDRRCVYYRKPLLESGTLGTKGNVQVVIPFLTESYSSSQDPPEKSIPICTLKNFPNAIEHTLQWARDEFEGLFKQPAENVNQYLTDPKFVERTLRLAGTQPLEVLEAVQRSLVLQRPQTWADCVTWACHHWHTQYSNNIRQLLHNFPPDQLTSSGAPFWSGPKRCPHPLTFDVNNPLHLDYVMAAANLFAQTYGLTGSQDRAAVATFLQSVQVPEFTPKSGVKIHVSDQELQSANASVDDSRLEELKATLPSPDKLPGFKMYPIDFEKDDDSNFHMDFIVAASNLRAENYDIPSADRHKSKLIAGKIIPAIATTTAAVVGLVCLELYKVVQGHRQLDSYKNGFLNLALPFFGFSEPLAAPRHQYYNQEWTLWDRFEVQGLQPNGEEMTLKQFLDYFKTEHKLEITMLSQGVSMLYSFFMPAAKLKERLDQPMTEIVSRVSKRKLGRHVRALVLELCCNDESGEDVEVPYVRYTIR
UniProt Q04206: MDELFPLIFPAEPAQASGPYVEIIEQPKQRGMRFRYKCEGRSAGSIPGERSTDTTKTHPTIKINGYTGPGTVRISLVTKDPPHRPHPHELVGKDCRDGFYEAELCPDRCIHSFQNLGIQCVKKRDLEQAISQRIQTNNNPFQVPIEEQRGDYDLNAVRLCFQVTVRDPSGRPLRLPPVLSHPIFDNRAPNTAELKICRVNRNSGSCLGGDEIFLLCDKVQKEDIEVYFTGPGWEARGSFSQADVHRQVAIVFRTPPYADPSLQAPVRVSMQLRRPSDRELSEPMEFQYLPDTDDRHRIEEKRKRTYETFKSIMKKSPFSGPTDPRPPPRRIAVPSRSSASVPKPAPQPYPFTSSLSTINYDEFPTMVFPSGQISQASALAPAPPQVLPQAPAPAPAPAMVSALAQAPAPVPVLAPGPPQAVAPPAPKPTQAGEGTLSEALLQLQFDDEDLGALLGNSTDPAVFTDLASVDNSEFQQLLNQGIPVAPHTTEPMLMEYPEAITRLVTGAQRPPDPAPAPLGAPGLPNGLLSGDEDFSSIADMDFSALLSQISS

binding [1]: no binding
Substance: p105 (from UniProt P19838 1-968)

binding [2]: binds
Substance: ubiquitin-like modifier-activating enzyme 1 (UBA1) (from UniProt P22314 1-1058)

binding [3]: no binding
binding [4]: binds
Substance: NF-κB subunit p65 (from UniProt Q04206 1-551)
